Data as given in the RNAGym collection of RNA variant scans (doi:10.7554/elife.90254).
Read counts are not given, so values of variants with three or more changes are uncertain.

B1: OR4K15 (parent)
chain: GUUAACGGUCAUAGGCCAUGGAAACUAGGAGCACCAUUUCGCUGCCAGUGAAGAAAUGAACAAAGAAAAUCUGGGCCAGGCAGGCAUCAAAAGAAAUAGUCUUGCGCUCAACCAGAAAGUCUGUAAUCAUUUUAAGGGUA

Variants of: B1
Experiment: self-cleavage, relative activity (ratio to wild type); higher = more cleavage; in vitro, sequencing; the parent is a self-cleaving ribozyme

Question: Which self-cleavage does the source give for U2C A36U A51G U70C here?
Answer: 0.3

Question: With U2C A24U A52G A60G U87C as the variant, how does the self-cleavage read?
Answer: 1.51

Question: For U2C A22G A23G A60G U102C, which self-cleavage is on record?
Answer: 1.36

Question: With U2C A4G A94G A95G as the variant, how does the self-cleavage read?
Answer: 1.2

Question: With U2A U122C U131C as the variant, how does the self-cleavage read?
Answer: 1.22

Question: For U2C C17U A52G U131C, which self-cleavage is on record?
Answer: 0.14

Question: For U2C A18U U38C U72A, which self-cleavage is on record?
Answer: 0.77

Question: For U2C A47G A51G U103C, which self-cleavage is on record?
Answer: 0.5

Question: With U2C A82G U131C as the variant, how does the self-cleavage read?
Answer: 0.59

Question: Which self-cleavage does the source give for U2C A13G A23C here?
Answer: 0.91

Question: For U2C A4G A118G, which self-cleavage is on record?
Answer: 0.72

Question: For U2C A118U U132A, which self-cleavage is on record?
Answer: 0.74

Question: Which self-cleavage does the source give for U2C A30G A62G A67G here?
Answer: 1.09

Question: For U2C A11U U19G A22G U103C A116G U120G U122A U133C, which self-cleavage is on record?
Answer: 0.12

Question: For U2C A13G A51G U87C A98U, which self-cleavage is on record?
Answer: 0.75

Question: Which self-cleavage does the source give for U2C A24G G115U here?
Answer: 0.27

Question: For U2C A18C A27G U43G A55G A60G G74A U97G U122A, which self-cleavage is on record?
Answer: 0.05

Question: Which self-cleavage does the source give for U2C G14C A117G here?
Answer: 1.58

Question: Which self-cleavage does the source give for U2C A92G U102C here?
Answer: 0.86

Question: For U2C A33G A55U A110G, which self-cleavage is on record?
Answer: 0.1

Question: With U2C A59G A63G as the variant, how does the self-cleavage read?
Answer: 0.31

Question: With U2C C16G A116U as the variant, how does the self-cleavage read?
Answer: 0.21

Question: With U2C G58A G84A as the variant, how does the self-cleavage read?
Answer: 2

Question: With U2C G31U A78G A90U U120A as the variant, how does the self-cleavage read?
Answer: 0.45

Question: With U2C C10A A51G U57C U100C U108C as the variant, how does the self-cleavage read?
Answer: 0.04

Question: For U2C A59G A78G, which self-cleavage is on record?
Answer: 0.23

Question: Which self-cleavage does the source give for U2C A22U A52G here?
Answer: 0.85

Question: For U2C A67G U108C A118G, which self-cleavage is on record?
Answer: 0.02

Question: Which self-cleavage does the source give for U2C U3C A24U here?
Answer: 0.69

Question: With U2C G44A A67G A135G as the variant, how does the self-cleavage read?
Answer: 0.97

Question: With U2C A68G A90G as the variant, how does the self-cleavage read?
Answer: 0.55

Question: With U2C A95G U103C as the variant, how does the self-cleavage read?
Answer: 0.51

Question: Which self-cleavage does the source give for U2C A11G A129U here?
Answer: 1.25

Question: For U2C A86U A111C, which self-cleavage is on record?
Answer: 0.07

Question: For U2C A5G U39C A52G A86U, which self-cleavage is on record?
Answer: 0.28

Question: Which self-cleavage does the source give for U2C A5G A36C here?
Answer: 1.55

Question: With U2C A11U A63G A64U A96G as the variant, how does the self-cleavage read?
Answer: 1.05

Question: With U2C U3C U43A A117G as the variant, how does the self-cleavage read?
Answer: 1.16

Question: With U2C A51U A82G A86G U103C as the variant, how does the self-cleavage read?
Answer: 1.32

Question: With U2C A47U A91G A110U as the variant, how does the self-cleavage read?
Answer: 0.21

Question: With U2A U72A A117G U127C as the variant, how does the self-cleavage read?
Answer: 0.09

Question: With U2C A33G A36G A54G A55G A60G as the variant, how does the self-cleavage read?
Answer: 0.82

Question: Which self-cleavage does the source give for U2C A23U A68U U72A G84U A116G here?
Answer: 0.09

Question: With U2C A22G U100C U108C U139C as the variant, how does the self-cleavage read?
Answer: 0.03

Question: With U2C A36G A52U as the variant, how does the self-cleavage read?
Answer: 1.43

Question: With U2C A55G U103C as the variant, how does the self-cleavage read?
Answer: 0.34

Question: Which self-cleavage does the source give for U2C A11C C25G G80C A126G U127C here?
Answer: 0.03

Question: Which self-cleavage does the source give for U2C G29A A69C U70A U108C here?
Answer: 0.07

Question: For U2C A23G A52G, which self-cleavage is on record?
Answer: 1.64

Question: For U2C A62G U108G, which self-cleavage is on record?
Answer: 0

Question: Which self-cleavage does the source give for U2C A4G U9C A116U here?
Answer: 0.21

Question: For U2C A56G A111G A114G U139A, which self-cleavage is on record?
Answer: 0.08

Question: Which self-cleavage does the source give for U2C A5U A55G A56G here?
Answer: 0.61

Question: With U2C A47G A56G A118G A126G U127C A129G as the variant, how does the self-cleavage read?
Answer: 0.04

Question: With U2C A30G A95U A98G A118G as the variant, how does the self-cleavage read?
Answer: 0.77

Question: For U2C A13G U26G A55G U57C A95G U130C, which self-cleavage is on record?
Answer: 1.69

Question: Which self-cleavage does the source give for U2C A90G A114U here?
Answer: 0.04

Question: Which self-cleavage does the source give for U2A U72C A78U here?
Answer: 0.21

Question: For U2C C85A A94G A129G, which self-cleavage is on record?
Answer: 0.77

Question: Which self-cleavage does the source give for U2A U70C A92G here?
Answer: 0.9

Question: For U2C G28U C34U C40U A51U A54G A55U U130C, which self-cleavage is on record?
Answer: 0.55

Question: With U2A U87C U102C A134U as the variant, how does the self-cleavage read?
Answer: 1.7

Question: Which self-cleavage does the source give for U2C A55G A64G A67G U72C A117G here?
Answer: 0.07

Question: Which self-cleavage does the source give for U2C A95G U130C here?
Answer: 2.19

Question: Which self-cleavage does the source give for U2C A67G U127A here?
Answer: 2.97

Question: With U2C A69G A94G as the variant, how does the self-cleavage read?
Answer: 0.27

Question: With U2C A22G A63G as the variant, how does the self-cleavage read?
Answer: 1.62

Question: For U2C A13G U38C, which self-cleavage is on record?
Answer: 1.31

Question: With U2C C35A A51G U57G A117U U131C as the variant, how does the self-cleavage read?
Answer: 0.75

Question: For U2C A52U G137A, which self-cleavage is on record?
Answer: 1.79

Question: With U2C G58U U70C A78G A90G as the variant, how does the self-cleavage read?
Answer: 0.2

Question: For U2C A60U U127A, which self-cleavage is on record?
Answer: 1.86

Question: With U2C A78U A91U A96G U103A as the variant, how does the self-cleavage read?
Answer: 0.11

Question: For U2C A11U A30G A56G A82U A95G, which self-cleavage is on record?
Answer: 0.24

Question: For U2C A23G U70G A92G U122C, which self-cleavage is on record?
Answer: 0.57

Question: With U2A U72A U132C A140U as the variant, how does the self-cleavage read?
Answer: 0.33

Question: With U2C G20U A47U A60G U108C as the variant, how does the self-cleavage read?
Answer: 0.03

Question: For U2C A4U C113U A116G U120C, which self-cleavage is on record?
Answer: 0.02

Question: Which self-cleavage does the source give for U2C A62U U103C A126G A140G here?
Answer: 0.86

Question: Which self-cleavage does the source give for U2A U57C A63G A96G here?
Answer: 1.09

Question: For U2C U3C A68G, which self-cleavage is on record?
Answer: 1.02

Question: For U2C A55G A69G, which self-cleavage is on record?
Answer: 1.51

Question: With U2C A92G A117U as the variant, how does the self-cleavage read?
Answer: 0.19

Question: With U2A U49C G79A as the variant, how does the self-cleavage read?
Answer: 0.24
